# Results as given in paper PMC4336329 (PLoS ONE, 2015).
# The whole screen tested about 310,000 compounds, of which about 14,000 (4.5%) showed an effect of 50% or more. The effect is printed as a negative number. The list shows a part of the results.
# Biological target: human ether-à-go-go-related gene (hERG) potassium channel (human, UniProt Q12809)
# Assay: primary screen, population patch clamp on CHO cells stably expressing hERG
# 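Further: peak tail current of the secondary pulse compared with the same well before compound.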
# human ether-à-go-go-related gene (hERG) potassium channel, sequence (Q12809 whole entry, looked up): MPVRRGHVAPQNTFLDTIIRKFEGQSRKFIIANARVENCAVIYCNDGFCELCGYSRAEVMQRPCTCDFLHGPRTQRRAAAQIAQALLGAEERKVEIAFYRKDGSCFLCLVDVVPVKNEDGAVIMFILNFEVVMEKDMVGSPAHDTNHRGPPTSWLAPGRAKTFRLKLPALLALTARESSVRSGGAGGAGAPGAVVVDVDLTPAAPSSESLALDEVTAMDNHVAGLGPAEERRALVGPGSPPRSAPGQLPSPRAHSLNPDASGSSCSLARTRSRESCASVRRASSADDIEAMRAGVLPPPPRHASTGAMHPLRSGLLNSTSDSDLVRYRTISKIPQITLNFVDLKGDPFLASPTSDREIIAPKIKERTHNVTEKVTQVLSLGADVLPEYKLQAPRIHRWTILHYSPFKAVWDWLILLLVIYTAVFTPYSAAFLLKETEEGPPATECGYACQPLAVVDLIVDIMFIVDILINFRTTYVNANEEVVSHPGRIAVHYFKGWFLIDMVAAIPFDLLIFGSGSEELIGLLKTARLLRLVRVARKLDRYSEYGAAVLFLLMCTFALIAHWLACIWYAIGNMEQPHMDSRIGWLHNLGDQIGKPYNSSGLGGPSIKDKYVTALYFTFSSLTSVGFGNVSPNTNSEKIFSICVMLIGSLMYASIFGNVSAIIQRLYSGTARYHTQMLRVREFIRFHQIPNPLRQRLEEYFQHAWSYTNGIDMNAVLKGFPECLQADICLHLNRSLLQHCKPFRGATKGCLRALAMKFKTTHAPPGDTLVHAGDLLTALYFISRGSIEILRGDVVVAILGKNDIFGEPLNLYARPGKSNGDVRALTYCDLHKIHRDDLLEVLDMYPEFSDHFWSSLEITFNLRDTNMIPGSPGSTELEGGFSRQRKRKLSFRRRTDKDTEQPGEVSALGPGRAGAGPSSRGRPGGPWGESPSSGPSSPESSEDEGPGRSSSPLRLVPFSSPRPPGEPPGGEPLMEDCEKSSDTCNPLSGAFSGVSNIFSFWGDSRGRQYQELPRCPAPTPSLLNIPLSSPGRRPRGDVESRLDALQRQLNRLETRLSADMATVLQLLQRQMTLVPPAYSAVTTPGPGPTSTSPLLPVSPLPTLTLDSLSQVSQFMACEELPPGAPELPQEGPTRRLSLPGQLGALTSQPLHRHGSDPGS
row,SMILES,"hERG current change (%, negative = inhibition) at 10uM"
1,CCCOc1ccc(C(CC(=O)O)NC(=O)c2sc3ccccc3c2Cl)cc1 (stereo not drawn),-3.36%
2,CC(=O)Nc1ccc(S(=O)(=O)N2CCC(n3cnc4cc(F)ccc43)CC2)cc1,-65.7%
3,CCNc1oc(-c2ccccc2F)nc1S(=O)(=O)c1ccccc1,13.9%
4,CC(=O)N(C)N(C)c1cc(C)nc(N)n1,8.83%
5,COc1ccc(NC(=O)CN2CCN(S(=O)(=O)c3ccc(Cl)cc3)CC2)cc1Cl,-0.308%
6,Nc1c(Cl)ncnc1NCC(O)CO (stereo not drawn),17.7%
7,CC(C)CC(NC(N)=O)C(=O)NCc1ccccc1Cl (stereo not drawn),11.2%
8,COc1ccc(-c2c(-c3ccccc3OC)sc3ccccc23)cc1C=O,23.5%
9,CC(=O)Nc1ccc(NS(=O)(=O)c2ccc(CN3C(=O)c4cccnc4C3=O)cc2)cc1,20.9%
10,CCOC(=O)N1CCN(C(=O)c2cn(C)c(=O)c3c2c2ccccc2n3C)CC1,-7.75%
11,NNC(=S)Nc1ccc(C(F)(F)F)cc1Cl,7.18%
12,S=C(NCCc1ccccc1)Nc1c(Cl)cccc1Cl,6.52%
13,O=c1[nH]cc(COCC(F)CCl)c(=O)[nH]1 (stereo not drawn),-6.67%
14,CS(=O)(=O)N(CCc1ccccc1)CC(=O)NCc1ccc(Cl)cc1,-45.9%
15,Cc1nnc(SCC(=O)Nc2ccc3[nH]c(=O)[nH]c3c2)s1,-9.64%
16,COc1ccccc1-c1nnc(SCC(=O)O)n1-c1ccc(C)cc1,0.246%
17,CCOC(=O)c1cnc(SC)nc1NCCOC,9.72%
18,O=C(N/N=C/c1ccco1)c1cc2ccccc2o1,2.33%
19,COc1ccc(S(=O)(=O)N2CCN(C(=O)CCNC(=O)c3ccccc3Cl)CC2)cc1,-23.3%
20,CCn1nc(C)c(NC(=O)CC23CC4CC(CC(C4)C2)C3)c1C,13.7%
21,CC(=O)Nc1nnc(-c2c(-c3ccccc3Cl)noc2C)o1,11.1%
22,O=C(NNC(=O)c1cc2ccccc2cc1O)NC1CCCCC1,22.8%

row,SMILES,"hERG current change (%, negative = inhibition) at 10uM"
1,Cc1c(Cc2ccccc2)sc(NC(=O)c2ccco2)c1C(N)=O,6.99%
2,COc1ccccc1NC(=O)CSc1ccc2nnc(-c3ccc(C)cc3)n2n1,-26.6%
3,Cc1ccc(OCC(=O)OC(C)C(=O)NC2CCCCC2C)cc1C (stereo not drawn),-1.91%
4,O=C(COC(=O)c1cccs1)Nc1cccc(Cl)c1,10.2%
5,CC(C)(C)c1ccc(C(=O)Nc2cccc([N+](=O)[O-])c2)cc1,-5.5%
6,COC(=O)C1=C(C)N=C2SC(C#N)=C(N)N2C1c1ccc(OCc2ccccc2)cc1 (stereo not drawn),0.349%
7,CCOc1ccccc1NC(=O)Cn1c(-c2ccc(Cl)cc2)noc1=O,-2.01%
8,O=C(O)C[C@H]1c2cc(F)ccc2S(=O)(=O)N1C1CCN(Cc2ccccc2)CC1,7.58%
9,COc1ccc(CCN=C(C)c2cc(C)c(C)cc2O)cc1OC,5.79%
10,OCC[C@H]1C[C@@H](O)[C@H](O)[C@@]2(CCc3ccccc3CO2)O1,-1.53%
11,Cc1ccc(C2CCN(C(=S)NC(C)(C)C)C2)cc1 (stereo not drawn),0.155%
12,Nc1nc(N)nc(-c2cc(Cl)ccc2Cl)n1.O=C(O)/C=C\C(=O)O,-8.52%
13,O=C(NC(Cc1c[nH]c2ccccc12)C(=O)O)c1ccc2c(c1)OCO2 (stereo not drawn),19.1%
14,COc1ccccc1NC(=O)N1C2CCCC1CC(NC(=O)c1ccccc1)C2 (stereo not drawn),11.6%
15,COc1ccccc1NC(=O)Nc1nc(CC(=O)Nc2ccc(F)cc2)cs1,-1.25%
16,CNC(=O)COC(=O)COc1ccc2c(C)cc(=O)oc2c1,21.7%
17,Cc1cc(N2CCCC2)nc2ccccc12,-41.2%
18,CC(C)CCNC(=O)C(=O)NCCC1=CCCCC1,9.15%
19,COC(=O)c1ccc(N2CCN(S(=O)(=O)c3ccc(C)cc3)CC2)c([N+](=O)[O-])c1,4.78%
20,COc1ccc(N2CCN(c3cc(C)c4ccc(O)cc4n3)CC2)cc1,-24.4%
21,CC(C)(CC(=O)O)CC(=O)NNc1ncccc1C#N,18.4%
22,CC1CC(C)CN(CCCNC(=O)Cc2c(C(=O)O)[nH]c3ccccc23)C1 (stereo not drawn),15.7%

row,SMILES,"hERG current change (%, negative = inhibition) at 10uM"
1,Cc1ccc(-c2c3c(=O)n(C)c(=O)n(C)c3cn2Cc2ccccn2)cc1,-0.562%
2,O=C(CCCNC(=O)c1ccc(Cl)cc1)Nc1ccccc1F,7%
3,Cc1cccc(C(=O)N2CCN(S(=O)(=O)c3ccc4c(c3)OCCCO4)CC2)c1[N+](=O)[O-],-4.78%
4,O=C(COc1ccccc1[N+](=O)[O-])NCCCN1CCCC1=O,12.5%
5,CCOc1ccccc1CNC(=O)c1ccccc1NC(=O)C1=CSCCO1,15.4%
6,Cc1ccc(S(=O)(=O)N2CCCCC2)cc1NC(=O)c1ccc(Br)o1,-37.3%
7,CCOC(=O)c1nn(-c2ccc(OCC)cc2)c(C)c1C(C)=O,-4.47%
8,COC(=O)c1cc(S(=O)(=O)NCC2CCN(Cc3cccc(F)c3)CC2)cn1C,-18.5%
9,O=C(COc1ccc2ccccc2c1)NCC1CCCO1 (stereo not drawn),0.778%
10,CN1CC2(C)CN(C(c3ccccc3)c3ccccc3)CC(C)(C1)C2O (stereo not drawn),-39.3%
11,CC1(C)C(c2ccccc2)=NC(c2cccnc2)N1O (stereo not drawn),-7.09%
12,Cc1ccc(Cl)cc1N1CCN(C(=O)CNC(=O)c2ccc(Br)o2)CC1,-55.9%
13,N#Cc1ccc(C(=O)Nc2nc(-c3cccs3)c(C(=O)C(F)(F)F)s2)cc1,-44.2%
14,Cc1ccc(Sc2nc3c(c(=O)[nH]c(=O)n3C)n2CCc2ccccc2)cc1,5.16%
15,CC(=O)Nc1nc(-c2ccc(Cl)cc2)ns1,-0.655%
16,Cc1ccc(Nc2ccccc2)cc1,5.68%
17,CCN1CCN(Cc2ccc(NC(=O)c3cc(NC(=O)c4nccnc4N)cc(OC)c3)cc2C(F)(F)F)CC1,6.98%
18,O=C(Nc1ccccc1Cl)N1CCN(c2ccc3nnc(-c4ccccc4)n3n2)CC1,-73.5%
19,CCC1C(c2ccccc2)NC(c2ccccc2)CC1(O)c1ccc(F)cc1.Cl (stereo not drawn),11.4%
20,COC(=O)CSc1nnc(CNS(=O)(=O)c2ccc(Br)cc2)n1C,10.8%
21,CC(C(=O)N1CCCC1)N1CCN(c2ccccc2O)CC1 (stereo not drawn),27.6%
22,O=[N+]([O-])c1ccccc1/C=C/C=N/n1c(-c2ccc(Cl)cc2)n[nH]c1=S,17.5%

row,SMILES,"hERG current change (%, negative = inhibition) at 10uM"
1,CC(C)NC(=O)NC(=O)CSc1nnc(-c2ccccc2F)n1N,4.37%
2,O=C(CN1C(=O)C2C3C=CC(C3)C2C1=O)Nc1ccc(C(=O)O)cc1 (stereo not drawn),16.2%
3,O=C(Cn1ccc2ccccc2c1=O)Nc1ccc2c(c1)OCO2,4.31%
4,COc1cc(OC)cc(C(=O)Nc2cccc(NC(=O)c3ccccc3)c2)c1,-27.3%
5,CC(=O)Nc1cccc(C(=O)/C=C/c2ccco2)c1,7.75%
6,O=C(c1ccc([N+](=O)[O-])cc1[N+](=O)[O-])n1cnc2ccccc21,-16.4%
7,Cc1cccc(NC(=O)c2nc[nH]c2C(=O)N[C@@H](C)C(=O)OCc2ccccc2)c1,16%
8,O=C(/C=C/c1ccc([N+](=O)[O-])s1)N1CCCCC1,-38.7%
9,O=C(NC1CCCC1)C(c1ccncc1)N(CC1CCCO1)C(=O)Cn1nnc(-c2cccs2)n1 (stereo not drawn),-13.9%
10,Cc1cc(=O)oc2cc(OCC(=O)OC(C)C(=O)NC3CCCC3)ccc12 (stereo not drawn),2.63%
11,O=C(CCCCCN1C(=O)c2ccccc2C1=O)Nc1ccc(C(=O)O)cc1,18.1%
12,CCN(CC)S(=O)(=O)c1cc(C(=O)OCC(=O)c2ccc3c(c2)NC(=O)CO3)ccc1Cl,-3.75%
13,COc1ccccc1NC(=O)C[n+]1ccccc1.[Cl-],21.8%
14,O=C(c1ccc([N+](=O)[O-])cc1[N+](=O)[O-])N1CCc2ccccc21,4.84%
15,Cc1ccc(NC(=O)CN(C)CC(=O)Nc2cccc(F)c2)cc1S(=O)(=O)N1CCCCCC1.O=C(O)C(=O)O,-7.23%
16,CC(=O)Nc1ccc(S(=O)(=O)NC(C)C(=O)NCCc2ccc(F)cc2)cc1 (stereo not drawn),11.3%
17,O=C(NCC1CCCO1)c1ccc(CS(=O)(=O)c2ccc(Cl)cc2)o1 (stereo not drawn),3.76%
18,CCO[C@H]1OC(C(=O)N2CCOCC2)=C[C@@H](c2coc3ccccc3c2=O)[C@@H]1CCCO,6.6%
19,CSc1ncccc1C(=O)OCC(=O)NCCC1=CCCCC1,0.879%
20,Cc1ccnc(NS(=O)(=O)c2ccc(NC(=O)c3ccc(S(=O)(=O)N(C)C)cc3)cc2)n1,15.9%
21,COc1cccc(NC(=O)C2CCCN(c3ncnc4c3nc3n4CCCCC3)C2)c1 (stereo not drawn),-67.4%
